# Test results taken from PubChem BioAssay AID463173 (ICCB-Longwood Screening Facility, Harvard Medical School, 2010).
# Hit rate of the full screen: of about 52,000 compounds, about 1,700 (3.3%) were called active. Rule as the data show it: active = survival mostly below about 52% (no sharp cut-off); inactive = mostly above about 56%. The list shows a part of the results.
# System: Wild type
# Experiment: S. aureus survival, RN4220 and DeltatarO strains – OD600, teichoic acid synthesis inhibitors, primary screen (AID 463173)
# Details: S. aureus RN4220 wild type/DeltatarO growth, OD600, 18 h, active compounds read low, screened at 18.75 µg/mL (by protocol)
row,SMILES,survival
1,CCc1noc(-c2ccc(N3CCCCC3)c([N+](=O)[O-])c2)n1,inactive: 75%
2,Cc1cc(OCC(=O)NCC2(N3CCOCC3)CCCCC2)ccc1Cl,inactive: 93%
3,C=CCNC(=O)c1cc2sccc2n1Cc1ccccc1,inactive: 121%
4,CC(Sc1nnc(-c2ccncc2)o1)C(N)=O (stereo unspecified),inactive: 99%
5,COc1ccccc1CN1CCC(CNC(=O)c2cnn(-c3ccc(C)c(C)c3)c2C2CCN(C(=O)OC(C)(C)C)CC2)CC1,inactive: 65%
6,CCc1cccc(NC(=O)C(CC(C)C)NS(=O)(=O)c2ccc3c(c2)oc(=O)n3C)c1 (stereo unspecified),inactive: 140%
7,CCC(=O)N1CCc2cc(CNC(=O)Nc3cc(Cl)ccc3C(=O)OC)ccc21,inactive: 91%
8,Brc1ccc2nc(-c3ccccc3)c(Nc3ccc4c(c3)OCO4)n2c1,inactive: 105%
9,O=C(c1cc2sccc2n1Cc1ccccc1)N1CCCCC1,inactive: 139%
10,CCCN(CCC)CCNC(=O)c1cc(-c2ccc(Br)s2)nc2ccccc12,inactive: 80%
11,N#CCC(=O)N1CCN(c2ccccc2)CC1,inactive: 106%
12,COc1ccccc1-c1nnc(SCC(=O)c2ccc(F)cc2)n1-c1ccccc1,active: 0%
13,CCc1ccc(CNC(=O)CN2C(=O)CCn3nc(-c4cn(C)c5ccccc45)cc32)cc1,inactive: 72%
14,O=C(Nc1cccc(Cl)c1)C1CCCN1S(=O)(=O)c1cccc2cccnc12 (stereo unspecified),inactive: 120%
15,Cn1nnnc1SCCNCc1ccc(OCc2ccc(Cl)cc2)cc1,inactive: 68%
16,Cc1cc(Cl)ccc1OCc1cc(=O)n2c3c(sc2n1)CCCC3,inactive: 81%
17,Cc1ccc(CN2C(=O)c3ccccc3Sc3ccc(C(=O)NCCCN4CCOCC4)cc32)cc1,inactive: 131%
18,CCc1ccc(C2=C(C)C(N3CCC(C(=O)NCCc4ccco4)CC3)=NS2(=O)=O)cc1,inactive: 51%
19,COc1cccc(OCC(=O)Nc2nnc3n2CCS3)c1,inactive: 68%
20,Cc1oc(-c2cccc(Cl)c2)nc1CN1CCC(C(=O)NCCc2ccc(Cl)cc2)CC1,inactive: 88%
21,Cc1cccc(NC(=O)CSc2nc(=O)n(Cc3cccnc3)c3c2CCC3)c1C,inactive: 73%
22,O=C(NC1CCCCC1)N(Cc1cc2cc3c(cc2[nH]c1=O)OCCO3)C1CCCCC1,inactive: 104%
23,COc1ccc(C(=O)Nc2ccc(N3CCOCC3)c(C(F)(F)F)c2)cc1OC,inactive: 75%

row,SMILES,survival
1,COc1ccccc1NC(=O)c1cc(S(=O)(=O)N2CCc3ccccc32)ccc1F,inactive: 71%
2,COc1ccc(NC(=O)c2cc3c(=O)n(Cc4cccnc4)ccc3nc2C)cc1Cl,inactive: 124%
3,C=Cc1ccc(Cn2c(=O)cc(C)c3c(C)nn(C)c32)cc1,active: 0%
4,Cc1cccc(N2CCN(c3c4c(nc5nncn35)CCC4)CC2)c1C,inactive: 84%
5,CN(C)c1ccc(C(CNS(=O)(=O)c2ccc(F)cc2)N2CCc3ccccc32)cc1 (stereo unspecified),active: 0%
6,COc1cc(-c2nnc(SCC(=O)Oc3ccccc3Cl)o2)cc(OC)c1OC,inactive: 82%
7,COc1ccc(S(=O)(=O)c2cn(Cc3ccccc3)c3ccc(OC)cc3c2=O)cc1,inactive: 134%
8,Cc1cc(C)n(C(=O)CNc2ccccc2Cl)n1,inactive: 103%
9,COc1ccccc1NC(=O)c1cc(C2CC2)nc2c1c(C)nn2-c1ccc(C)cc1,inactive: 88%
10,CC(C)CCN(Cc1ccco1)C(=O)Cn1ncc2c([nH]c3ccccc32)c1=O,inactive: 82%
11,O=c1c(N2CCc3ccccc3C2)csc2ccc(Br)cc12,inactive: 80%
12,CCOC(=O)c1cc(-c2ccccc2)n(CCCC(=O)Nc2cc(C)ccc2OC)c1C,inactive: 84%
13,Cc1cccc(C(=O)Nc2ccc(N3CCN(c4ccc(F)cc4)CC3)c(C(=O)O)c2)c1,inactive: 63%
14,COc1ccccc1Cc1nc2ccccc2nc1SCC(=O)N1CCC(C)CC1,inactive: 70%
15,Nc1cc(S(=O)(=O)C(F)(F)F)cc(S(=O)(=O)C(F)(F)F)c1,inactive: 110%
16,O=C(NC1CCCCCC1)N1CCOCC1,inactive: 106%
17,Cc1c(C(=O)N2CCC(C)CC2)c(S(=O)(=O)N2CCN(c3cccc(Cl)c3)CC2)c(C)n1C,inactive: 73%
18,COc1ccc(OC)c(NC(=O)CCc2nc(-c3ccc(C)cc3)no2)c1,inactive: 84%
19,Cc1ccn2c(Nc3ccc4c(c3)OCCO4)c(-c3ccc(C)s3)nc2c1,inactive: 126%
20,Cc1ccc2nc(SCC(=O)Nc3ccc(C#N)cc3)[nH]c2c1,inactive: 83%
21,Cc1c(Nc2ncnc3sc4c(c23)CCCC4)c(=O)n(-c2ccccc2)n1C,inactive: 102%
22,CCOc1ccc(C(=O)NCc2ccc3c(c2)CCN3C(=O)c2ccc(C)cc2)cc1OCC,inactive: 76%
23,COc1ccc(Nc2cc(C(=O)NCc3ccccc3)c3ccccc3n2)cc1OC,inactive: 83%

row,SMILES,survival
1,CC1CCC/C(=C(/C#N)c2nc(-c3ccccc3O)cs2)C1 (stereo unspecified),inactive: 85%
2,O=c1c(S(=O)(=O)c2ccc(Cl)cc2)cn(Cc2ccc(F)cc2)c2ccc(F)cc12,inactive: 130%
3,COc1ccc(S(=O)(=O)c2cn(Cc3ccccc3)c3cc(F)c(F)cc3c2=O)cc1,inactive: 82%
4,CN1C(=O)c2[nH]nc(-c3ccc(F)cc3)c2C1c1ccccn1 (stereo unspecified),inactive: 94%
5,CCCCn1c(SCC(=O)Nc2ccc(F)cc2)nc2c(sc3ccccc32)c1=O,inactive: 78%
6,Fc1ccc(Nc2nc(Nc3ccc(F)cc3)nc(N3CCOCC3)n2)cc1,inactive: 101%
7,CC(C)c1ccc(NC(=O)Cn2nnc(C(=O)NCc3cccs3)c2N)cc1,inactive: 133%
8,COc1ccc(NC(=O)C(=O)NCC2(c3ccccc3)CCCC2)c(OC)c1,inactive: 99%
9,CCOc1ccc(-c2cc(C(=O)N3CCN(c4cccc(C(F)(F)F)c4)CC3)c3ccccc3n2)cc1,inactive: 74%
10,O=C(CSc1nnc(-c2ccc(Br)cc2)n1-c1ccccc1)c1ccccc1,inactive: 97%
11,Cc1ccc2oc3c(c(=O)c2c1)C(c1ccc(OCC(N)=O)cc1)N(Cc1ccc2c(c1)OCO2)C3=O (stereo unspecified),inactive: 87%
12,CNC(=O)CSc1nnc(NC(=O)Nc2ccccc2)s1,inactive: 128%
13,Cc1ccc(N(CC(C)C)S(=O)(=O)c2nnc(NC(=O)c3cccs3)s2)cc1,inactive: 42%
14,COc1ccc(C(=O)NCC(c2ccc3c(c2)OCO3)N2CCN(c3ccc(F)cc3)CC2)cc1 (stereo unspecified),inactive: 88%
15,CC1(C)CC(=O)C2=C(C1)NC1=C(C(=O)CC(C)(C)C1)C2c1ccc2c(c1)OCO2,inactive: 106%
16,COc1cccc(/C=N/NC(=O)COc2c(C)cccc2C)c1O,inactive: 113%
17,CCc1ccccc1NC(=O)c1cc(-c2ccc3c(c2)OCO3)on1,inactive: 156%
18,CC1CCCCN1C(=O)CN1CCN(C)CC1 (stereo unspecified),inactive: 116%
19,CCOc1ccc(/C=C/c2nc(C#N)c(N3CCN(c4ccccc4)CC3)o2)cc1,inactive: 82%
20,COc1ccc(CNC(=O)CN2C(=O)COc3ccc(S(=O)(=O)N4CCOCC4)cc32)cc1,inactive: 101%
21,CCOCN(C(=O)Cn1cnc2cc(C)c(C)cc21)c1c(C)cccc1CC,inactive: 55%
22,COc1ccc(-c2cn3nc(N4CCC(C(=O)Nc5ccc(C)cc5)CC4)sc3n2)cc1,inactive: 128%
23,Cc1cccc(Oc2coc3cc(OCC(=O)NC4CCCCC4)ccc3c2=O)c1,inactive: 80%

row,SMILES,survival
1,CCOC(=O)c1oc2c(c1C)/C(=N/O)CCC2,inactive: 117%
2,CN(C)c1cc[n+](Cc2ccccc2)cc1,inactive: 108%
3,CCOc1ccc(N(CC)S(=O)(=O)N2CCCC(C(=O)NCCc3ccccc3OC)C2)cc1 (stereo unspecified),inactive: 86%
4,CC1CCCCN1C(=O)CSc1nnc(-c2ccccc2Cl)o1 (stereo unspecified),inactive: 76%
5,COc1ccccc1CNC(=O)Cn1c(=O)ccc2cc(S(=O)(=O)N3CCCC3)ccc21,inactive: 73%
6,O=C(Nc1ccc(C(=O)N2CCN(c3ccc(Cl)cc3)CC2)cc1)c1nsc2ccccc12,inactive: 81%
7,Cc1ccc(O)c(C2=Nc3ccccc3N=C(c3cccc(F)c3)C2)c1,inactive: 139%
8,COc1ccc(Br)cc1CNC(=O)C1COc2ccccc2C1 (stereo unspecified),inactive: 22%
9,Cc1ccc2oc(-c3cc(NC(=O)c4cccs4)cc(C)c3O)nc2c1,inactive: 163%
10,Cc1ccc(Cl)cc1N1CCN(c2ncnc3onc(-c4ccc(F)cc4)c23)CC1,inactive: 89%
11,Cc1ccc(Cn2c(C)c(CNC(C)c3ccccc3)c(C(=O)O)c2C)cc1 (stereo unspecified),inactive: 128%
12,O=C(c1ccc(CS(=O)(=O)c2c(Cl)cccc2Cl)o1)N1CCN(c2ccccc2)CC1,inactive: 126%
13,Cc1ccc(-n2c(SCC(N)=O)nc3c([nH]c4ccccc43)c2=O)cc1,inactive: 134%
14,Cc1cncn1CCc1nc2c3ccccc3nc(SCC(=O)Nc3ccccc3F)n2n1,inactive: 68%
15,CC(C)(C)c1ccc(-c2noc(CCC(=O)Nc3cccc(Cl)c3)n2)cc1,inactive: 87%
16,CCOC(=O)N1CCN(C(=O)CN(c2cc(C)ccc2OC)S(=O)(=O)c2ccc(C)cc2)CC1,inactive: 96%
17,Cc1ccc(S(=O)(=O)Cc2nc(-c3ccc(C(=O)NCc4ccccc4F)cc3)oc2C)cc1,inactive: 128%
18,CCOc1ccccc1CNC(=O)C1CCCN(S(=O)(=O)c2ccc3c(ccn3C)c2)C1 (stereo unspecified),inactive: 79%
19,CCN(CC)CC(=O)Nc1nc2ccc(OC)cc2s1,inactive: 103%
20,CCc1ccc(-n2nc(C)c3c(C(=O)Nc4cc(C)ccc4C)cc(C)nc32)cc1,inactive: 47%
21,COc1nc(-c2ccc(C)cc2)ccc1-c1noc(-c2ccc(C(C)(C)C)cc2)n1,inactive: 32%
22,COc1ccc(OC)c(S(=O)(=O)NCCc2csc3nc(-c4ccccc4)nn23)c1,active: -3%
